Results: PubChem BioAssay AID1476 (National Center for Advancing Translational Sciences (NCATS), 2009)
The campaign covered roughly 200,000 compounds. About 4,500 (2.2%) were called active. This list was built around the results that the source calls inconclusive (neither active nor inactive); the mix of calls is not that of the screen. The call rests on the fitted dose curve; in most records, active means well fitted inhibition curve with a large enough effect; inconclusive means small, poorly fitted or top-dose-only effect, or effect the other way; inactive means flat fitted curve, though single readings scatter. Potencies beside an inconclusive call are fits to weak or partial responses and may not hold up.

target: Cruzipain (Trypanosoma cruzi) (UniProt P25779); assay: qHTS Assay for Promiscuous and Specific Inhibitors of Cruzain (without detergent); conditions: purified cruzain, Z-FR-AMC fluorescence, no detergent; further: nearly all actives have a fitted effect of over 40% in size;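 on max response, negative = inhibition: plate controls were enzyme without inhibitor for no effect and buffer without enzyme for full effect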
Chain of UniProt P25779 (P25779 whole entry, looked up): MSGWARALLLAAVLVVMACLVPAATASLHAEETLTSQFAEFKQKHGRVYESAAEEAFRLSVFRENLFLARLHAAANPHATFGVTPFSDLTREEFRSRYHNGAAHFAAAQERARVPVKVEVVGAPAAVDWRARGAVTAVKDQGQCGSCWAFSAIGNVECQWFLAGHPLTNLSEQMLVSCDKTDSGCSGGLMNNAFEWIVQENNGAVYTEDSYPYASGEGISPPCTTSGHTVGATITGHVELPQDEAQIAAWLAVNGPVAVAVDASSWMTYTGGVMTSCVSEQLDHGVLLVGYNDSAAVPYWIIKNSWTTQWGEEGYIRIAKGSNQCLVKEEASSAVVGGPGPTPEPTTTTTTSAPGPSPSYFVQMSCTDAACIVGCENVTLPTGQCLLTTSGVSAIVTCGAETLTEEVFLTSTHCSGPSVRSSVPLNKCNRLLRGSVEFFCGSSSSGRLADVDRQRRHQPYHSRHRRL
Summary of the method: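 Purified cruzain at 1.5 nM, pre-incubated 15 min with compound at room temperature in 100 mM sodium acetate pH 5.5, 5 mM DTT, 0.00005% Triton X-100. Reaction started with 2 uM Z-FR-AMC; AMC fluorescence increase over 60 s gives rate.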
Potency means the concentration at half of the fitted maximal effect; tags describe the fitted curve by direction and shape.

**Q.** How did the Potency turn out when `CC(=O)Nc1ccc(S(=O)(=O)N(Cc2ccccc2)Cc2ccccc2)cc1` was run?
**A.** inconclusive: 39.8 µM [activator, single point]

**Q.** Which Potency does the source give for `COC(=O)Cn1nc(-c2ccccc2)c2cc(Cl)ccc21` here?
**A.** inconclusive: 39.8 µM [activator, single point]

**Q.** For `COc1ccc(CCNC(=O)C(=O)NCC(c2cccnc2)N2CCN(c3ccccc3)CC2)cc1` (stereo not given), which Potency is on record?
**A.** inconclusive: 31.6 µM [activator, single point]

**Q.** Which Potency does the source give for `CCc1ccc(CNC(=O)c2ccc(CS(=O)(=O)Cc3cccc(C)c3)o2)cc1` here?
**A.** inconclusive: 39.8 µM [activator, single point]

**Q.** `CN(C)c1ncc2nc(-c3ccc(F)cc3)c(=O)n(C[C@H]3CCCO3)c2n1` was tested. Which max response, negative = inhibition did it give?
**A.** inactive: 7.53%

**Q.** For `CS(=O)(=O)N(Cc1ccc(Cl)cc1)c1ccc(C(=O)NCCSc2ccccn2)cc1`, which Potency is on record?
**A.** inconclusive: 25.1 µM [activator, single point]

**Q.** How did the max response, negative = inhibition turn out when `O=C(NCc1ccc(Cl)cc1)c1ccc2c(c1)N(Cc1ccccc1F)C(=O)c1ccccc1S2=O` (stereo not given) was run?
**A.** inactive: -15.7%

**Q.** With `Cc1ccc(NC(=O)Cn2c(=O)ccc3cc(S(=O)(=O)N4CCCC4)ccc32)cc1N(C)C` as the compound, how does the Potency read?
**A.** inconclusive: 39.8 µM [activator, single point]

**Q.** Which Potency does the source give for `COc1cc(OC)c(OC)cc1/C=C/c1nc2ccccc2c(=O)n1-c1ccc(Br)c(C)c1` here?
**A.** inconclusive: 39.8 µM [activator, single point]

**Q.** With `Cc1ccc(OCC(=O)NC(=S)Nc2cccc(NC(=O)c3ccccc3)c2)cc1` as the compound, how does the Potency read?
**A.** inconclusive: 39.8 µM [inhibitor, single point]

**Q.** How did the Potency turn out when `COc1cc(NC(=S)NCCC(c2ccccc2)c2ccccc2)cc(OC)c1` was run?
**A.** active: 31.6 µM

**Q.** With `CC(CCc1ccccc1)NC(=O)c1ccc(NC(=O)c2ccc(Cl)cc2Cl)cc1` (stereo not given) as the compound, how does the Potency read?
**A.** inconclusive: 31.6 µM [inhibitor, single point]

**Q.** With `COc1ccc(C(=O)N2CCN(c3nc4c(C)c(Cl)ccc4s3)CC2)c(OC)c1` as the compound, how does the Potency read?
**A.** inconclusive: 31.6 µM [activator, single point]

**Q.** `C=CCCCCCCCCCCCc1ccco1` was tested. Which max response, negative = inhibition did it give?
**A.** inactive: 6.61%

**Q.** Which Potency does the source give for `COCCCNc1nc2c(-c3ccc(Cl)cc3)nnn2c2ccccc12` here?
**A.** inconclusive: 31.6 µM [inhibitor, single point]

**Q.** For `COc1cc2nc(SCC(=O)Nc3cccc(C)c3)n3nc(CCn4c(C)nc5ccccc54)nc3c2cc1OC`, which max response, negative = inhibition is on record?
**A.** inactive: -29.1%

**Q.** Which Potency does the source give for `CNC(=O)c1ccc(-c2ccc(OC)cc2)s1` here?
**A.** inconclusive: 39.8 µM [inhibitor, single point]

**Q.** With `O=C(/C=C/c1ccc(Cl)c([N+](=O)[O-])c1)Nc1ccc(NC(=O)c2ccco2)cc1` as the compound, how does the Potency read?
**A.** inconclusive: 25.1 µM [inhibitor, single point]

**Q.** For `C=C1c2cccc(OC)c2O[C@H](C(=O)OCC)[C@@H]1CCC(C)C`, which Potency is on record?
**A.** inconclusive: 50.1 µM [activator, single point]

**Q.** With `Cc1ccc(NC(=O)Nc2ccc3oc(C)nc3c2)cc1` as the compound, how does the Potency read?
**A.** inconclusive: 39.8 µM [activator, single point]

**Q.** How did the Potency turn out when `COC(=O)[C@@]1(Cc2ccccc2)[C@@H]2[C@@H](CC(=O)[C@H]2CC(=O)C(=O)N(C)C)CN1C(=O)c1ccccc1` was run?
**A.** inconclusive: 31.6 µM [activator, single point]

**Q.** `CCOc1ccc(OCC)c(NS(=O)(=O)c2ccc3[nH]c(=O)ccc3c2)c1` was tested. Which Potency did it give?
**A.** inconclusive: 39.8 µM [activator, single point]

**Q.** `COc1ccc(CNC(=O)c2ccc3c(c2)CCN3S(=O)(=O)c2ccc(Cl)cc2)cc1` was tested. Which Potency did it give?
**A.** inconclusive: 31.6 µM [inhibitor, single point]

**Q.** `O=C(COc1ccc(F)cc1)NC1CC(=O)N(c2ccc3c(c2)OCCO3)C1` (stereo not given) was tested. Which max response, negative = inhibition did it give?
**A.** inactive: 4.63%

**Q.** With `CCc1ccc(NC(=O)N(Cc2cn(CC)c3ccccc23)C2CCCCC2)cc1` as the compound, how does the Potency read?
**A.** inconclusive: 39.8 µM [inhibitor, single point]

**Q.** Which Potency does the source give for `COC(=O)[C@@]1(Cc2ccc(F)cc2)[C@H]2c3cc(C(=O)N(C)C)n(CCCNc4ccc(C(F)(F)F)cc4Cl)c3C[C@H]2CN1C(=O)c1ccccc1` here?
**A.** inconclusive: 25.1 µM [activator, partial curve]

**Q.** For `O=C1c2[nH]nc(-c3ccccc3O)c2C(c2ccc(Cl)cc2)N1CCc1ccccc1` (stereo not given), which Potency is on record?
**A.** inconclusive: 15.8 µM [inhibitor, single point]

**Q.** With `Cn1c(=O)cc(OCC(=O)N2CCN(c3ccc(F)cc3)CC2)c2ccccc21` as the compound, how does the max response, negative = inhibition read?
**A.** inactive: -5.55%

**Q.** `CCOc1ccccc1Nc1ncnc2c1c(-c1ccccc1)cn2-c1ccc(OC)cc1` was tested. Which Potency did it give?
**A.** active: 10 µM

**Q.** `COc1cc(NC(=O)CCc2c(C)nc3c4c(C)cc(C)nc4nn3c2C)cc(OC)c1` was tested. Which Potency did it give?
**A.** inconclusive: 7.94 µM [activator, single point]

**Q.** With `Cc1cc(C)cc(NC(=O)CCCn2nc(C)c3c(C)n(-c4ccccc4)nc3c2=O)c1` as the compound, how does the max response, negative = inhibition read?
**A.** inactive: 0.741%

**Q.** How did the Potency turn out when `Cc1cccc(C(=O)Nc2sc(C)c(-c3ccccc3)c2C#N)c1` was run?
**A.** inconclusive: 20 µM [inhibitor, single point]

**Q.** Which Potency does the source give for `Cc1cc2ccccc2nc1SCC(=O)Nc1nc(-c2ccccc2)cs1` here?
**A.** active: 7.94 µM

**Q.** Which max response, negative = inhibition does the source give for `O=c1cnc2cncnc2n1Cc1ccccc1` here?
**A.** inactive: -7.31%

**Q.** For `C=CCn1c(=N)c(C(=O)NCCCOC)cc2c(=O)n3ccccc3nc21`, which Potency is on record?
**A.** active: 25.1 µM

**Q.** How did the Potency turn out when `CC(Sc1nnc(NCc2ccccc2)s1)C(=O)Nc1ccc2c(c1)C(=O)c1ccccc1C2=O` (stereo not given) was run?
**A.** active: 31.6 µM

**Q.** `COc1ccc(C2=C(C)C(=O)N(Cc3ccc(C(=O)Nc4ccc(C)c(C)c4)cc3)S2(=O)=O)cc1` was tested. Which Potency did it give?
**A.** active: 7.94 µM

**Q.** For `CCC/C=C(\CCC)C(NS(=O)(=O)c1ccc(C(F)(F)F)cc1)c1ccccc1` (stereo not given), which Potency is on record?
**A.** inconclusive: 39.8 µM [inhibitor, single point]

**Q.** Which Potency does the source give for `CCOc1ccccc1NC(=O)C1=C(C)Nc2ncnn2C1c1ccccn1` (stereo not given) here?
**A.** inconclusive: 6.31 µM [inhibitor, single point]

**Q.** `Cc1c(C(=O)Nc2nnc(SCc3ccccc3Cl)s2)cccc1[N+](=O)[O-]` was tested. Which Potency did it give?
**A.** inconclusive: 39.8 µM [inhibitor, single point]

**Q.** With `CC1CN(S(=O)(=O)c2cccc(C(=O)Nc3ccc4c(c3)CCC4)c2)CC(C)O1` (stereo not given) as the compound, how does the Potency read?
**A.** inconclusive: 25.1 µM [activator, partial curve]

**Q.** `Cc1cc(C)nc(N(C#N)Cc2cccc3ccccc23)n1` was tested. Which max response, negative = inhibition did it give?
**A.** inactive: 8.83%

**Q.** How did the Potency turn out when `NC(=S)N=Nc1c(O)[nH]c2ccc(F)cc12` was run?
**A.** active: 5.01 µM

**Q.** Which Potency does the source give for `N/C(=N\OC(=O)c1ccc(Cl)c(Cl)c1)c1cccnc1` here?
**A.** inconclusive: 39.8 µM [inhibitor, single point]

**Q.** How did the max response, negative = inhibition turn out when `COc1cccc(-c2nc(SCC(=O)NC3CCCC3)c(-c3ccc(F)cc3)[nH]2)c1` was run?
**A.** inactive: 1.49%

**Q.** How did the Potency turn out when `CC1CCN(S(=O)(=O)c2ccc3nc(Nc4cccc(C(F)(F)F)c4)ccc3c2)CC1` was run?
**A.** inconclusive: 39.8 µM [inhibitor, single point]

**Q.** For `CCOc1ccc(/C=C/c2nc3ccccc3n2S(=O)(=O)c2cccc(Cl)c2)cc1`, which max response, negative = inhibition is on record?
**A.** inactive: -0.55%

**Q.** For `CC(C)c1ccccc1OCC(=O)NCC(c1cccs1)N1CCOCC1` (stereo not given), which Potency is on record?
**A.** inconclusive: 31.6 µM [activator, single point]

**Q.** How did the max response, negative = inhibition turn out when `COc1ccc(C(=O)N2CCC3(CC2)CN(Cc2ccc(C#N)cc2)C3)cc1` was run?
**A.** inactive: -5.8%

**Q.** With `CCOC(=O)c1cc(-c2ccc(OC)cc2)n(CCC(=O)Nc2ccc(OC)cc2OC)c1C` as the compound, how does the Potency read?
**A.** inconclusive: 39.8 µM [activator, single point]

**Q.** For `Cc1ccc(Cl)cc1NC(=O)N1CCc2cc(S(=O)(=O)N3CCC(C)CC3)ccc21`, which max response, negative = inhibition is on record?
**A.** inactive: -0.81%

**Q.** How did the Potency turn out when `COc1cccc(C(=O)Nc2ccc(-c3nnc(-c4ccco4)o3)cc2)c1` was run?
**A.** inconclusive: 39.8 µM [activator, single point]

**Q.** For `CC(C)c1ccc(NC(=S)NCCc2c[nH]c3ccccc23)cc1`, which max response, negative = inhibition is on record?
**A.** inactive: -0.337%

**Q.** `Cc1cc(C)cc(NC(=O)CCS(=O)(=O)c2ccc3c(c2)oc(=O)n3C)c1` was tested. Which max response, negative = inhibition did it give?
**A.** inactive: -8.44%

**Q.** For `COc1cccc(C2(CSc3nnc(-c4cc(OC)c(OC)c(OC)c4)o3)OCCO2)c1`, which Potency is on record?
**A.** inconclusive: 31.6 µM [activator, single point]

**Q.** Which Potency does the source give for `O=C(NCc1ccccc1)N1CCc2c(sc3c2CCCC3)C1c1ccccc1` (stereo not given) here?
**A.** inconclusive: 39.8 µM [inhibitor, single point]

**Q.** How did the Potency turn out when `Cc1nc(-c2cnn(-c3ccccc3)c2)c2cc(C)oc2n1` was run?
**A.** inconclusive: 10 µM [activator, single point]

**Q.** How did the Potency turn out when `O=C(NNC(=O)c1cc2cc3ccccc3nc2s1)c1cccc(C(F)(F)F)c1` was run?
**A.** active: 25.1 µM

**Q.** How did the Potency turn out when `COC(=O)c1nc2n(n1)C(c1ccc(OC)c(OC)c1)C(C(=O)OC1CCCCC1)=C(C)N2` (stereo not given) was run?
**A.** inconclusive: 31.6 µM [activator, single point]

**Q.** How did the Potency turn out when `CCc1ccc(CN(Cc2ccco2)C(=O)COc2ccc(Cl)cc2C)cc1` was run?
**A.** inconclusive: 15.8 µM [inhibitor, partial curve]

**Q.** For `CC(C)CCN1CC(O)=C(c2nc(-c3ccc(Cl)cc3)cs2)C1=N`, which Potency is on record?
**A.** active: 25.1 µM

**Q.** With `C[C@H]1C[C@@H]2[C@@H]([C@@H](O)C[C@@]3(C)[C@H]2CC[C@]3(O)C(=O)CO)[C@@]2(C)C=CC(=O)C=C12` as the compound, how does the max response, negative = inhibition read?
**A.** inactive: -10.3%

**Q.** For `CC(=O)Nc1ccc2nc(SCCOc3ccccc3)sc2c1`, which Potency is on record?
**A.** inconclusive: 39.8 µM [activator, single point]

**Q.** `Cc1ccc(NC(=O)C(=O)NCCCN2CCOCC2)cc1C` was tested. Which max response, negative = inhibition did it give?
**A.** inactive: 2.69%

**Q.** For `CCOc1ccc(CNC(=O)C2CCN(Cc3cc4ccccc4n3Cc3ccccc3C)CC2)cc1`, which Potency is on record?
**A.** inconclusive: 39.8 µM [inhibitor, single point]
